For 80 compounds, TGI and GI50 results are on record in PubChem BioAssay (NCI).

“And” between values parts separate entries of the source, which are not always exact repeats. Equal entries are not always repeated.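 All cell lines were grown in 96-well plates and treated with compound for 48 hours. GI50 marks 50% less growth. Definition used: TGI = concentration required for complete inhibition of growth.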 Where only a bound is given, the exact number is not on record here.

This experiment concerns NCI-H322M lung. Put plainly: growth of human tumour cells (NCI), 48 h.
For `O=C1C(c2ccc(Br)cc2)=[N+]([O-])c2ccccc21`, the TGI was determined as 39.7 µM.

With `CC(C)(C)c1ccc(Oc2ccc(N)cn2)cc1`, the GI50 was > 100 µM and the TGI was > 100 µM.

Take `CCN(Cc1ccccc1)C1CCN(Cc2cc(Br)ccc2O)CC1`: the GI50 is > 100 µM and the TGI was > 100 µM.

With `CSc1ccn(C2CC(F)C(CO)O2)c(=O)n1` (stereo not drawn), the TGI was > 100 µM.

Regarding `COc1cccc(CC(C)=C(c2ccc(OCCN3CCCCC3)cc2)c2ccc(OCCN3CCCCC3)cc2)c1`, the GI50 is 1.88 µM and the TGI turned out to be 3.73 µM.

For the compound `COC1=CC2(CC(OC)=C1OC)OC21COc2ccccc2C1=O` (stereo not drawn), the TGI was > 100 µM.

Regarding `COC1=CC(=O)CC(C)C12Oc1c(Cl)c(OC)cc(OC)c1C2=O` (stereo not drawn), the TGI was > 100 µM.

On to `COCN1COCN=C1NC#N`, for which the TGI was > 100 µM.

On to `CC(=O)Oc1c2c(c3n(c1=O)CCCC3)C(=O)N(c1ccccc1)C2=O`, for which the TGI was > 100 µM.

As for `C/C=C1\CN(C(=O)OC(C)(C)C)C1C(=O)OC(C)(C)C` (stereo not drawn), the TGI was > 100 µM.

On to `c1ccc2c3c([nH]c2c1)[C@H]1C2CCCCN2CN1CC3` (stereo partly drawn), for which the TGI is > 100 µM.

Regarding `Nc1ccc(C2=CC(c3ccc(Cl)cc3)N3C=CSC3=N2)cc1` (stereo not drawn), the GI50 is 17.4 µM and the TGI worked out at 89.3 µM.

On to `CC1=C(c2ccccc2)C(O)(c2ccccc2)C(C)C1=O` (stereo not drawn), for which the GI50 was 23.5 µM and the TGI was > 100 µM.

For the compound `COc1ccc(C/C(=C(\C)c2ccc(OCCN3CCCC3)cc2)c2ccc(OCCN3CCCC3)cc2)cc1`, the GI50 is 2.02 µM and the TGI amounted to 4.96 µM.

Turning to `COc1cc(OC)c2c3c(OC)cc(OC)c4c(=O)c(O)c(C[C@@H](C)O)c(c5c(C[C@@H](C)O)c(O)c(=O)c1c25)c43`, the TGI is > 100 µM.

For `O=C1C=CC=C/C1=C1/SC(c2ccccc2)=C(O)N1c1ccccc1`, the TGI was > 100 µM.

In the case of `Cc1csc2c1-n1cccc1C2=O`, the TGI was > 100 µM.

Take `CC(=O)Oc1c(-c2ccccc2)sc2ccccc12`: the TGI stood at 33.9 µM.

For `COC(=O)C1Cc2c(n(C)c3ccccc23)C(CCC(=O)O)N1Cc1ccccc1` (stereo not drawn), the TGI is > 100 µM.

As to `COC(=O)C1=C(O)[C@H](C(=O)OC)C2(O)C(C(=O)OC)[C@H](c3ccc(OC(=O)C(C)c4ccc(CC(C)C)cc4)cc3)C[C@@H]1[C@@H]2C(=O)OC` (stereo partly drawn), the GI50 was 22.6 µM and the TGI is > 50 µM.

For the compound `O=S(=O)(O)c1cc(O)c(N=Nc2ccc(O)cc2O)c2ccccc12`, the TGI was > 100 µM.

For `COc1ncc(Nc2ncc([C@@H](C)N3CCN(S(C)(=O)=O)CC3)cc2-c2nc(C)nc(N)n2)cc1F`, the GI50 was 0.0633 µM and the TGI came out at 3.03 µM.

For the compound `NNC(=S)NCCNC(=S)NN`, the TGI was > 100 µM.

As for `O=C(/C=C/c1ccccc1F)c1ccc(Cl)c(Cl)c1`, the TGI was > 100 µM.

Take `CN(C)c1ccc(/C=C(\NC(=O)c2ccccc2)C2=NC(CCC(=O)O)C(=O)O2)cc1` (stereo not drawn): the TGI was > 50 µM.

Regarding `COC(=O)N/N=C(\C)c1c(O)cc(C)oc1=O`, the TGI is > 100 µM.

In the case of `C=C(C)COC1CCCCO1` (stereo not drawn), the TGI was > 100 µM.

For `C=C1C(O)C[C@H](OC(C)=O)[C@]2(C)C1C(OC(C)=O)[C@]1(C(C)(C)O)CC(O)C(C)=C1[C@@H](OC(=O)c1ccccc1)C2OC(C)=O` (stereo partly drawn), the TGI is > 10 µM.

`CCOC(=O)/C(=C/c1ccc(C(=O)OC)cc1)N(CC)CC`: the TGI was > 100 µM.

In the case of `COc1ccc(-c2nc(-c3ccc(C)cc3)cn3ccnc23)cc1`, the GI50 was 33.4 µM and the TGI is > 50 µM.

With `COc1cc(Nc2ncc(-c3ccccc3)o2)cc(OC)c1`, the GI50 is > 25 µM and the TGI is > 25 µM.

For `CCOC(=O)C(=O)CC1=Nc2ccccc2SC(c2cccc(C)c2)C1` (stereo not drawn), the TGI worked out at 51.9 µM.

In the case of `O=c1ccn(C2OC(CO)C(O)C2F)c(=O)n1Cc1ccccc1` (stereo not drawn), the TGI is > 100 µM.

Consider `O=C(O)[C@H](NS(=O)(=O)c1ccc(F)cc1)c1ccccc1`, for which the TGI is > 100 µM.

Turning to `COc1cc(/C=N/Nc2ncnc3c2cnn3-c2ccccc2)ccc1O`, the GI50 is > 18 µM and the TGI was > 25 µM.

With `NC(CCOCCP(=O)(O)O)C(=O)O` (stereo not drawn), the TGI is > 100 µM.

As to `Clc1cccc(NN=Nc2ccc(-c3nc4ccccc4s3)cc2)c1`, the TGI is > 100 µM.

For the compound `O=C1C(Cl)=C(N(C(=O)c2ccccc2)C(=O)c2ccccc2)C(=O)c2ccccc21`, the TGI is > 100 µM.

Regarding `COc1c(-c2nc3nc(N4CCN(C)CC4)ccc3[nH]2)cc(OC)c2c1nc(COC(C)=O)n2C`, the TGI is > 100 µM.

`O=C(CSc1nc(-c2ccccc2)c(-c2ccccc2)[nH]1)N/N=C/c1ccc(O)cc1`: the TGI was > 100 µM.

As to `Cc1ccc(-c2nc(N/N=C/c3ccc(O)cc3)c3ccccc3n2)cc1`, the TGI is > 100 µM.

`Cc1cc(=O)n2nc(CCl)sc2n1`: the TGI is 31.2 µM.

Regarding `CCC(C)[C@H](NC(=O)Nc1cc(C(F)(F)F)cc(C(F)(F)F)c1)C(=O)N[C@@H](Cc1cn(C)cn1)C(=O)OC` (stereo partly drawn), the GI50 is 1.31 µM and the TGI was 1.97 µM.

Regarding `Cc1nc(C)c(N2CCNCC2)c(=O)[nH]1`, the TGI is > 100 µM.

With `Cc1ccc(C(=O)Nc2ccc(CP(=O)(O)O)cc2CP(=O)(O)O)cc1NC(=O)Nc1cc(C(=O)Nc2ccc(CP(=O)(O)O)cc2CP(=O)(O)O)ccc1C`, the TGI was > 100 µM.

Consider `CCOC(=O)c1cc2c(cc1Cl)SC(=Nc1ccccc1)N(S(=O)(=O)c1ccc(Cl)cc1)S2(=O)=O`, for which the GI50 was 24.7 µM and the TGI came to 41 µM.

Consider `O=C([CH-]C(=O)c1ccccc1)c1ccccc1.[CH-]1CCCCC1.[CH-]1CCCCC1.[CH-]1CCCCC1.[Sn+4]`, for which the GI50 is 12.5 µM and the TGI stood at 28.4 µM.

In the case of `CCN(CC)CCN1C(=O)c2c(c3c4ccccc4[nH]c3c3ccc4ccccc4c23)C1=O`, the GI50 is 1.44 µM and the TGI was determined as 2.79 µM.

As for `CNC(=O)c1cc(Oc2ccc(NC(=O)Nc3ccc(Cl)c(C(F)(F)F)c3)c(F)c2)ccn1`, the GI50 is 3.55 µM and 3.16 µM; the TGI is 12.4 µM and > 10 µM.

In turn, `COC(=O)c1ccc(C)cc1CC1Cc2ccc(C)cc2C1=O` (stereo not drawn) returned a TGI of 95.7 µM.

On to `ClC/C=C/COC1CCCCO1` (stereo not drawn), for which the TGI is > 100 µM.

`NC(=O)c1cc([N+](=O)[O-])c(Cl)c([N+](=O)[O-])c1Cl`: the GI50 was 6.05 µM and the TGI worked out at 19.7 µM.

Take `O=[N+]([O-])C(/C=N/Nc1ccccc1)/C=N/Nc1ccccc1`: the TGI is > 100 µM.

As for `Cc1cccc2nc3ccccc3c(Nc3ccc(NS(C)(=O)=O)cc3)c12`, the GI50 is 15.4 µM and the TGI worked out at 46.9 µM.

As for `COc1ccc(N=NC(=O)NC(CC(C)C)C(N)=O)cc1` (stereo not drawn), the TGI is > 31.6 µM.

With `CN(C)c1ccc2oc(=O)c3ccccc3c2c1`, the TGI is > 100 µM.

`Cc1ccccc1NC(=O)c1sc2nc(C)c(C(=O)/C=C/c3ccccc3)cc2c1N`: the GI50 was 1.87 µM and the TGI was 7.42 µM.

Turning to `NC1=NS(=O)(=O)Nc2nc(-c3ccccc3)[nH]c21`, the TGI was > 100 µM.

With `COc1ccc2c(c1)c(-c1nc(-c3c[nH]c4ccncc34)cs1)cn2C`, the GI50 was 1.69 µM and the TGI was 3.08 µM.

Take `COC(=O)[C@H](Cc1cnc[nH]1)NC(=O)[C@@H](NC(=O)Nc1cc(C(F)(F)F)cc(C(F)(F)F)c1)C(C)C`: the GI50 was 17 µM and the TGI was found to be 31.9 µM.

Regarding `O=C(NC(=O)c1cc(-c2ccccc2)n[nH]1)c1ccccc1`, the TGI was > 100 µM.

Turning to `Clc1ccc(-c2cn3c(nc4ccccc43)c(/C=C/c3ccco3)n2)cc1`, the TGI is > 100 µM.

`CC1CC[P+](c2ccccc2)(c2ccccc2)c2c1ccc1ccccc21` (stereo not drawn): the GI50 is 15.3 µM and the TGI came to 75.3 µM.

In the case of `CC(=O)Nc1ccc2[nH]c(C(=O)N3CC(CCl)c4c3cc([N+](=O)[O-])c3ccccc43)cc2c1` (stereo not drawn), the TGI was > 89.4 µM.

On to `Nc1nc(Cl)cc(NC2(CO)CCC2)n1`, for which the TGI was > 100 µM.

`CC1C(C)N(C(=O)CCl)c2ccccc2N1C(=O)CCl` (stereo not drawn): the GI50 was 1.68 µM and the TGI was found to be 3.57 µM.

For the compound `CCCCCCCCCCCC[C@@H](O)[C@H]1CCC([C@H](O)CCCCC(=O)CCCCCCCC2=C[C@H](C)OC2=O)O1` (stereo partly drawn), the TGI is > 50 µM.

With `Cc1sc2c(c1C)/C(=N\O)c1cccn1-2`, the TGI was > 100 µM.

Turning to `NCC(O)CNC(=O)c1ccc(-c2ccc(-c3ccc(C(=O)NCC(O)CN)cc3)o2)cc1` (stereo not drawn), the TGI worked out at 44.2 µM.

`COc1cc2c3c(n(C)c(=O)c2cc1OC)-c1cc2c(cc1/C3=C\CCCI)OCO2`: the TGI is > 100 µM.

As for `CC1=C(SCCC(=O)OC(C[Se]C2=C(C)C(=O)c3ccccc3C2=O)C(=O)NCCCCCC(=O)OCc2ccccc2)C(=O)c2ccccc2C1=O` (stereo not drawn), the GI50 is 3.78 µM and the TGI is 17.3 µM.

Take `NCCCC[C@@H]1NC(=O)[C@H](CC(=O)O)NC(=O)CNC(=O)[C@H](CCCN=C(N)N)NC(=O)[C@@H](N)CSSC[C@@H](C(=O)O)NC(=O)[C@H](CC(=O)O)NC(=O)[C@@H]2CCCN2C(=O)CNC1=O`: the GI50 is > 100 µM and the TGI is > 100 µM.

Take `COc1ccccc1NC(=O)CC(=O)N1N=C(N2c3ccccc3Sc3ccccc32)CC1c1ccccc1` (stereo not drawn): the TGI was > 100 µM.

Regarding `C=C/C=C/[C@@H](O)CC(=C)C[C@H]1OC2[C@H](C)[C@@H](OC(=O)C[C@H]3C[C@H](OC(C)=O)C[C@@]4(C[C@@](C)(O)C[C@H](CC(=C)[C@@H](C)[C@H](OC(C)=O)[C@H](C)C(=O)C[C@@H]5C[C@H](OC)CC6(C[C@@H](O)C[C@H](/C=C\CCC[C@H]7O[C@](O)(C=C[C@H]7C)[C@H]2O)O6)O5)O4)O3)[C@@H]1O`, the GI50 was 0.00361 µM and 0.0025 µM; the TGI was > 25 µM.

`Cc1c(N=Nc2ccccc2)c(C)n(C2OC(CO)C(O)C(O)C2O)c(=S)c1C#N` (stereo not drawn): the TGI was > 100 µM.

In the case of `COc1ccc(CN2c3ccccc3Sc3ccccc32)c(C(F)(F)F)c1`, the GI50 was 12.5 µM and the TGI was > 100 µM.

Turning to `Cc1cccc(N2C(=O)C3c4[nH]c5ccccc5c4C4CCC(C(C)(C)C)CC4C3C2=O)c1` (stereo not drawn), the TGI amounted to 26.5 µM.

Regarding `C[C@@H]1C(=O)C[C@H]2C(C)(C)CCC[C@]2(C)[C@@]1(O)CCc1ccoc1`, the TGI was > 100 µM.

On to `C[CH2][Ge]([CH2]C)([CH2]C)[O]C(=O)C(OC(C)=O)c1ccccc1` (stereo not drawn), for which the GI50 was > 100 µM and the TGI is > 100 µM.

Compound `C=C1C(=O)O[C@@H]2[C@H](O)[C@@H](C)[C@@H]3C=CC(=O)[C@@]3(C)[C@@H](OC(=O)/C(C)=C/C)[C@H]12` gave a TGI of 7.1 µM.
